# This is one part of the list.
# B1: rAAL-I144G (Agrocybe aegerita), Q6WY08 (protein)
# chain: MQGVNIYNISAGTSVDLAAPVTTGDIVTFFSSALNLNAGAGNPNNTTLNLFAENGAYLLHIAFRLQENVIIFNSRQPDGPWLVEQRVSDVANQFAGIDGKAMVTVFDHGDKYQVVINEKTVIQYTKQISGLTLSLSYNATEETSGFSTVVEAVTYTGLALEHHHHHH
# Legend:
# Experiment in all cases: glycan array binding signal (z-score within array); higher = stronger binding
# Conditions in all cases: glycan notation: IUPAC condensed, linker removed; mutation: I144G
# [1] = target: Fuc(a1-2)Gal(b1-4)[Fuc(a1-3)]GlcNAc
# In short: (§1)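 From the Consortium for Functional Glycomics database, 3228 arrays were curated, keeping only those whose protein sequence was available. Binding is given as a within-array Z-score averaged across arrays sharing a protein sequence and across linkers. Negative Z-scores can be read as non-binding.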
# [2] = target: Fuc(a1-2)Gal(b1-4)[Fuc(a1-3)]GlcNAc(b1-2)Man(a1-3)[Fuc(a1-2)Gal(b1-4)[Fuc(a1-3)]GlcNAc(b1-2)Man(a1-6)]Man(b1-4)GlcNAc(b1-4)[Fuc(a1-6)]GlcNAc
# In short: as §1
# [3] = target: Fuc(a1-2)Gal(b1-4)[Fuc(a1-3)]GlcNAc(b1-2)[Fuc(a1-2)Gal(b1-4)[Fuc(a1-3)]GlcNAc(b1-4)]Man(a1-3)[Fuc(a1-2)Gal(b1-4)[Fuc(a1-3)]GlcNAc(b1-2)Man(a1-6)]Man(b1-4)GlcNAc(b1-4)GlcNAc
# In short: as §1
# [4] = target: Fuc(a1-2)Gal(b1-4)[Fuc(a1-3)]GlcNAc(b1-3)Gal(b1-4)[Fuc(a1-3)]GlcNAc
# In short: as §1
# [5] = target: Fuc(a1-2)Gal(b1-4)[Fuc(a1-3)]GlcNAc(b1-3)Gal(b1-4)[Fuc(a1-3)]GlcNAc(b1-3)Gal(b1-4)[Fuc(a1-3)]GlcNAc
# In short: as §1
# [6] = target: Fuc(a1-2)Gal(b1-4)[Fuc(a1-3)]GlcNAc(b1-3)GalNAc
# In short: as §1
# [7] = target: Fuc(a1-2)Gal(b1-4)[Fuc(a1-3)]GlcNAc(b1-3)[Neu5Ac(a2-6)Gal(b1-4)GlcNAc(b1-6)]Gal(b1-4)Glc
# In short: as §1
# [8] = target: Fuc(a1-2)Gal3S(b1-4)GlcNAc
# In short: as §1
# [9] = target: Fuc(a1-2)Gal6S(b1-3)GlcNAc
# In short: as §1
# [10] = target: Fuc(a1-2)Gal6S(b1-3)GlcNAc6S
# In short: as §1
# Fuc(a1-2)Gal6S(b1-4)Glc = target: Fuc(a1-2)Gal6S(b1-4)Glc
# In short: as §1
# [11] = target: Fuc(a1-2)Gal6S(b1-4)Glc6S
# In short: as §1
# Fuc(a1-2)[Gal(a1-3)]Gal = target: Fuc(a1-2)[Gal(a1-3)]Gal
# In short: as §1
# [12] = target: Fuc(a1-2)[Gal(a1-3)]Gal(b1-3)GalNAc
# In short: as §1
# [13] = target: Fuc(a1-2)[Gal(a1-3)]Gal(b1-3)GalNAc(b1-3)Gal(a1-4)Gal(b1-4)Glc
# In short: as §1
# [14] = target: Fuc(a1-2)[Gal(a1-3)]Gal(b1-3)GlcNAc
# In short: as §1
# [15] = target: Fuc(a1-2)[Gal(a1-3)]Gal(b1-3)GlcNAc(b1-2)Man(a1-3)[Fuc(a1-2)[Gal(a1-3)]Gal(b1-3)GlcNAc(b1-2)Man(a1-6)]Man(b1-4)GlcNAc(b1-4)GlcNAc
# In short: as §1
# [16] = target: Fuc(a1-2)[Gal(a1-3)]Gal(b1-3)GlcNAc(b1-2)Man(a1-3)[Fuc(a1-2)[Gal(a1-3)]Gal(b1-3)GlcNAc(b1-2)Man(a1-6)]Man(b1-4)GlcNAc(b1-4)[Fuc(a1-6)]GlcNAc
# In short: as §1
# [17] = target: Fuc(a1-2)[Gal(a1-3)]Gal(b1-3)GlcNAc(b1-3)GalNAc
# In short: as §1
# [18] = target: Fuc(a1-2)[Gal(a1-3)]Gal(b1-3)GlcNAc(b1-6)GalNAc
# In short: as §1
# [19] = target: Fuc(a1-2)[Gal(a1-3)]Gal(b1-4)Glc
# In short: as §1
# [20] = target: Fuc(a1-2)[Gal(a1-3)]Gal(b1-4)GlcNAc
# In short: as §1
# [21] = target: Fuc(a1-2)[Gal(a1-3)]Gal(b1-4)GlcNAc(b1-2)Man
# In short: as §1
# [22] = target: Fuc(a1-2)[Gal(a1-3)]Gal(b1-4)GlcNAc(b1-2)Man(a1-3)[Fuc(a1-2)[Gal(a1-3)]Gal(b1-4)GlcNAc(b1-2)Man(a1-6)]Man(b1-4)GlcNAc(b1-4)GlcNAc
# In short: as §1
# [23] = target: Fuc(a1-2)[Gal(a1-3)]Gal(b1-4)GlcNAc(b1-2)Man(a1-3)[Fuc(a1-2)[Gal(a1-3)]Gal(b1-4)GlcNAc(b1-2)Man(a1-6)]Man(b1-4)GlcNAc(b1-4)[Fuc(a1-6)]GlcNAc
# In short: as §1
# [24] = target: Fuc(a1-2)[Gal(a1-3)]Gal(b1-4)GlcNAc(b1-3)GalNAc
# In short: as §1
# [25] = target: Fuc(a1-2)[Gal(a1-3)]Gal(b1-4)GlcNAc(b1-3)[Fuc(a1-2)[Gal(a1-3)]Gal(b1-4)GlcNAc(b1-6)]GalNAc
# In short: as §1
# [26] = target: Fuc(a1-2)[Gal(a1-3)]Gal(b1-4)GlcNAc(b1-6)GalNAc
# In short: as §1
# [27] = target: Fuc(a1-2)[Gal(a1-3)]Gal(b1-4)[Fuc(a1-3)]Glc
# In short: as §1
# [28] = target: Fuc(a1-2)[Gal(a1-3)]Gal(b1-4)[Fuc(a1-3)]GlcNAc
# In short: as §1
# [29] = target: Fuc(a1-2)[Gal(a1-3)]Gal(b1-4)[Fuc(a1-3)]GlcNAc(b1-3)GalNAc
# In short: as §1
# [30] = target: Fuc(a1-2)[Gal(a1-4)]Gal(b1-4)GlcNAc
# In short: as §1
# [31] = target: Fuc(a1-2)[GalNAc(a1-3)]Gal
# In short: as §1
# [32] = target: Fuc(a1-2)[GalNAc(a1-3)]Gal(b1-3)GalNAc(a1-3)[Fuc(a1-2)]Gal(b1-4)GlcNAc
# In short: as §1
# [33] = target: Fuc(a1-2)[GalNAc(a1-3)]Gal(b1-3)GalNAc(b1-3)Gal(a1-4)Gal(b1-4)Glc
# In short: as §1
# [34] = target: Fuc(a1-2)[GalNAc(a1-3)]Gal(b1-3)GlcNAc
# In short: as §1
# [35] = target: Fuc(a1-2)[GalNAc(a1-3)]Gal(b1-3)GlcNAc(b1-2)Man(a1-3)[Fuc(a1-2)[GalNAc(a1-3)]Gal(b1-3)GlcNAc(b1-2)Man(a1-6)]Man(b1-4)GlcNAc(b1-4)GlcNAc
# In short: as §1
# [36] = target: Fuc(a1-2)[GalNAc(a1-3)]Gal(b1-3)GlcNAc(b1-2)Man(a1-3)[Fuc(a1-2)[GalNAc(a1-3)]Gal(b1-3)GlcNAc(b1-2)Man(a1-6)]Man(b1-4)GlcNAc(b1-4)[Fuc(a1-6)]GlcNAc
# In short: as §1
binder,measurement,setting,value
B1,glycan array binding signal (z-score),[1],-0.056
same,glycan array binding signal (z-score),[2],-0.117
same,glycan array binding signal (z-score),[3],0.078
same,glycan array binding signal (z-score),[4],-0.039
same,glycan array binding signal (z-score),[5],-0.144
same,glycan array binding signal (z-score),[6],-0.124
same,glycan array binding signal (z-score),[7],-0.075
same,glycan array binding signal (z-score),[8],-0.067
same,glycan array binding signal (z-score),[9],-0.155
same,glycan array binding signal (z-score),[10],-0.087
same,glycan array binding signal (z-score),Fuc(a1-2)Gal6S(b1-4)Glc,-0.039
same,glycan array binding signal (z-score),[11],-0.143
same,glycan array binding signal (z-score),Fuc(a1-2)[Gal(a1-3)]Gal,-0.102
same,glycan array binding signal (z-score),[12],0.143
same,glycan array binding signal (z-score),[13],-0.18
same,glycan array binding signal (z-score),[14],-0.104
same,glycan array binding signal (z-score),[15],-0.093
same,glycan array binding signal (z-score),[16],-0.145
same,glycan array binding signal (z-score),[17],-0.158
same,glycan array binding signal (z-score),[18],-0.189
same,glycan array binding signal (z-score),[19],-0.079
same,glycan array binding signal (z-score),[20],-0.113
same,glycan array binding signal (z-score),[21],-0.142
same,glycan array binding signal (z-score),[22],-0.108
same,glycan array binding signal (z-score),[23],-0.142
same,glycan array binding signal (z-score),[24],-0.194
same,glycan array binding signal (z-score),[25],-0.12
same,glycan array binding signal (z-score),[26],-0.088
same,glycan array binding signal (z-score),[27],-0.077
same,glycan array binding signal (z-score),[28],-0.166
same,glycan array binding signal (z-score),[29],-0.118
same,glycan array binding signal (z-score),[30],-0.036
same,glycan array binding signal (z-score),[31],-0.166
same,glycan array binding signal (z-score),[32],-0.155
same,glycan array binding signal (z-score),[33],-0.146
same,glycan array binding signal (z-score),[34],-0.197
same,glycan array binding signal (z-score),[35],-0.092
same,glycan array binding signal (z-score),[36],-0.134

# From the supplement of paper PMC8728848
